# Results as given in the supplement of paper PMC8728848.
# The other results are listed elsewhere or left out.
# B1: Tamarinin (protein)
# chain: CDDSARAGNIVVYWGQGGSDNSEGSLKEACKSGHYNMIVLQQLIVYDDGRDPDLNLGAHCSDCTKLEEQIKYCQNKDIKILLQIGQVVPTQEDVKDVTKNLSEYLLKNFFSGKSGPLGEVYLNGIDIASVPEGNNLKFDELVEALNDSSTERRIYLSASPLCVYPDYYLNKAIQTEKLDFLFVQFFYQNPCIYTEGNPENLFEAMKTWTKNVPESMIFMALPATPNLDGYIPPRVLNKEILPAVSEASNFAGVMIFDRYFDRFRKYSSKIK
# Experiments:
# Test in all cases: glycan array binding signal (z-score within array); higher = stronger binding
# Conditions in all cases: glycan notation: IUPAC condensed, linker removed
# [1] = molecular target: Gal(b1-3)GlcNAc(b1-2)Man(a1-3)[Gal(b1-3)GlcNAc(b1-2)Man(a1-6)]Man(b1-4)GlcNAc(b1-4)[Fuc(a1-6)]GlcNAc
# Method in brief: (§1)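 From the Consortium for Functional Glycomics database, 3228 arrays were curated, keeping only those whose protein sequence was available. Binding is given as a within-array Z-score averaged across arrays sharing a protein sequence and across linkers. Negative Z-scores can be read as non-binding.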
# [2] = molecular target: Gal(b1-3)GlcNAc(b1-2)Man(a1-3)[GlcNAc(b1-4)][Gal(b1-3)GlcNAc(b1-2)Man(a1-6)]Man(b1-4)GlcNAc(b1-4)GlcNAc
# Method in brief: as §1
# [3] = molecular target: Gal(b1-3)GlcNAc(b1-2)[Gal(b1-3)GlcNAc(b1-6)]Man(a1-6)[Gal(b1-3)GlcNAc(b1-2)Man(a1-3)]Man(b1-4)GlcNAc(b1-4)GlcNAc
# Method in brief: as §1
# [4] = molecular target: Gal(b1-3)GlcNAc(b1-3)Gal(b1-3)GlcNAc
# Method in brief: as §1
# [5] = molecular target: Gal(b1-3)GlcNAc(b1-3)Gal(b1-4)Glc
# Method in brief: as §1
# [6] = molecular target: Gal(b1-3)GlcNAc(b1-3)Gal(b1-4)GlcNAc
# Method in brief: as §1
# [7] = molecular target: Gal(b1-3)GlcNAc(b1-3)Gal(b1-4)GlcNAc(b1-2)Man(a1-3)[Gal(b1-3)GlcNAc(b1-3)Gal(b1-4)GlcNAc(b1-2)Man(a1-6)]Man(b1-4)GlcNAc(b1-4)GlcNAc
# Method in brief: as §1
# [8] = molecular target: Gal(b1-3)GlcNAc(b1-3)Gal(b1-4)GlcNAc(b1-2)[Gal(b1-3)GlcNAc(b1-3)Gal(b1-4)GlcNAc(b1-6)]Man(a1-6)[Gal(b1-3)GlcNAc(b1-3)Gal(b1-4)GlcNAc(b1-2)Man(a1-3)]Man(b1-4)GlcNAc(b1-4)[Fuc(a1-6)]GlcNAc
# Method in brief: as §1
# [9] = molecular target: Gal(b1-3)GlcNAc(b1-3)Gal(b1-4)GlcNAc(b1-3)Gal(b1-4)GlcNAc(b1-2)[Gal(b1-3)GlcNAc(b1-3)Gal(b1-4)GlcNAc(b1-3)Gal(b1-4)GlcNAc(b1-6)]Man(a1-6)[Gal(b1-3)GlcNAc(b1-3)Gal(b1-4)GlcNAc(b1-3)Gal(b1-4)GlcNAc(b1-2)Man(a1-3)]Man(b1-4)GlcNAc(b1-4)[Fuc(a1-6)]GlcNAc
# Method in brief: as §1
# [10] = molecular target: Gal(b1-3)GlcNAc(b1-3)Gal(b1-4)GlcNAc(b1-6)[Gal(b1-3)GlcNAc(b1-3)]Gal(b1-4)Glc
# Method in brief: as §1
# [11] = molecular target: Gal(b1-3)GlcNAc(b1-3)Gal(b1-4)[Fuc(a1-3)]GlcNAc
# Method in brief: as §1
# [12] = molecular target: Gal(b1-3)GlcNAc(b1-3)Gal(b1-4)[Fuc(a1-3)]GlcNAc(b1-6)[Gal(b1-3)GlcNAc(b1-3)]Gal(b1-4)Glc
# Method in brief: as §1
# [13] = molecular target: Gal(b1-3)GlcNAc(b1-3)GalNAc
# Method in brief: as §1
# [14] = molecular target: Gal(b1-3)GlcNAc(b1-6)Gal(b1-4)GlcNAc
# Method in brief: as §1
# [15] = molecular target: Gal(b1-3)GlcNAc(b1-6)GalNAc
# Method in brief: as §1
# [16] = molecular target: Gal(b1-3)GlcNAc(b1-6)[Gal(b1-3)]GalNAc
# Method in brief: as §1
# Gal(b1-3)GlcNAc6S = molecular target: Gal(b1-3)GlcNAc6S
# Method in brief: as §1
# [17] = molecular target: Gal(b1-3)[Fuc(a1-4)]GlcNAc
# Method in brief: as §1
# [18] = molecular target: Gal(b1-3)[Fuc(a1-4)]GlcNAc(b1-2)Man
# Method in brief: as §1
# [19] = molecular target: Gal(b1-3)[Fuc(a1-4)]GlcNAc(b1-2)Man(a1-3)[Gal(b1-3)[Fuc(a1-4)]GlcNAc(b1-2)Man(a1-6)]Man(b1-4)GlcNAc(b1-4)[Fuc(a1-6)]GlcNAc
# Method in brief: as §1
# [20] = molecular target: Gal(b1-3)[Fuc(a1-4)]GlcNAc(b1-3)Gal(b1-3)[Fuc(a1-4)]GlcNAc
# Method in brief: as §1
# [21] = molecular target: Gal(b1-3)[Fuc(a1-4)]GlcNAc(b1-3)Gal(b1-4)[Fuc(a1-3)]GlcNAc
# Method in brief: as §1
# [22] = molecular target: Gal(b1-3)[Fuc(a1-4)]GlcNAc(b1-6)GalNAc
# Method in brief: as §1
# [23] = molecular target: Gal(b1-3)[GlcNAc(b1-6)]GalNAc
# Method in brief: as §1
# [24] = molecular target: Gal(b1-3)[Neu5Ac(a2-6)]GalNAc
# Method in brief: as §1
# [25] = molecular target: Gal(b1-3)[Neu5Ac(a2-6)]GlcNAc(b1-4)Gal(b1-4)Glc
# Method in brief: as §1
# [26] = molecular target: Gal(b1-3)[Neu5Ac(b2-6)]GalNAc
# Method in brief: as §1
# Gal(b1-4)Gal = molecular target: Gal(b1-4)Gal
# Method in brief: as §1
# [27] = molecular target: Gal(b1-4)GalNAc(a1-3)[Fuc(a1-2)]Gal(b1-4)GlcNAc
# Method in brief: as §1
# [28] = molecular target: Gal(b1-4)GalNAc(b1-3)[Fuc(a1-2)]Gal(b1-4)GlcNAc
# Method in brief: as §1
# Gal(b1-4)Glc = molecular target: Gal(b1-4)Glc
# Method in brief: as §1
# Gal(b1-4)Glc6S = molecular target: Gal(b1-4)Glc6S
# Method in brief: as §1
# Gal(b1-4)GlcNAc = molecular target: Gal(b1-4)GlcNAc
# Method in brief: as §1
# [29] = molecular target: Gal(b1-4)GlcNAc(a1-6)Gal(b1-4)GlcNAc
# Method in brief: as §1
# Gal(b1-4)GlcNAc(b1-2)Man = molecular target: Gal(b1-4)GlcNAc(b1-2)Man
# Method in brief: as §1
# [30] = molecular target: Gal(b1-4)GlcNAc(b1-2)Man(a1-3)Man(b1-4)GlcNAc(b1-4)GlcNAc
# Method in brief: as §1
# [31] = molecular target: Gal(b1-4)GlcNAc(b1-2)Man(a1-3)[Gal(b1-4)GlcNAc(b1-2)Man(a1-6)]Man(b1-4)GlcNAc(b1-4)GlcNAc
# Method in brief: as §1
binder,measurement,setting,value
B1,glycan array binding signal (z-score),[1],-0.025
same,glycan array binding signal (z-score),[2],1.66
same,glycan array binding signal (z-score),[3],0.649
same,glycan array binding signal (z-score),[4],-0.135
same,glycan array binding signal (z-score),[5],2.34
same,glycan array binding signal (z-score),[6],-0.389
same,glycan array binding signal (z-score),[7],0.563
same,glycan array binding signal (z-score),[8],-0.078
same,glycan array binding signal (z-score),[9],4.61
same,glycan array binding signal (z-score),[10],-0.383
same,glycan array binding signal (z-score),[11],-0.347
same,glycan array binding signal (z-score),[12],-0.427
same,glycan array binding signal (z-score),[13],-0.079
same,glycan array binding signal (z-score),[14],-0.377
same,glycan array binding signal (z-score),[15],-0.441
same,glycan array binding signal (z-score),[16],1.22
same,glycan array binding signal (z-score),Gal(b1-3)GlcNAc6S,-0.277
same,glycan array binding signal (z-score),[17],-0.206
same,glycan array binding signal (z-score),[18],1.45
same,glycan array binding signal (z-score),[19],3.52
same,glycan array binding signal (z-score),[20],-0.394
same,glycan array binding signal (z-score),[21],-0.077
same,glycan array binding signal (z-score),[22],-0.371
same,glycan array binding signal (z-score),[23],-0.109
same,glycan array binding signal (z-score),[24],-0.292
same,glycan array binding signal (z-score),[25],2.92
same,glycan array binding signal (z-score),[26],-0.455
same,glycan array binding signal (z-score),Gal(b1-4)Gal,0.396
same,glycan array binding signal (z-score),[27],-0.488
same,glycan array binding signal (z-score),[28],-0.549
same,glycan array binding signal (z-score),Gal(b1-4)Glc,-0.115
same,glycan array binding signal (z-score),Gal(b1-4)Glc6S,-0.251
same,glycan array binding signal (z-score),Gal(b1-4)GlcNAc,-0.352
same,glycan array binding signal (z-score),[29],-0.35
same,glycan array binding signal (z-score),Gal(b1-4)GlcNAc(b1-2)Man,1.22
same,glycan array binding signal (z-score),[30],-0.166
same,glycan array binding signal (z-score),[31],-0.431
